According to publication PMC6212790:
The list shows a part of the results. At the low end of the ranking, values are background and their order means little.

Each sequence was assayed against T1, GST-Rok (full length) (UniProt O34857) (assay: protein binding microarray). Conditions: Rok is a gene silencer of Bacillus subtilis; high values mean tight binding; most listed sequences are background and not binding sites; double strand, one strand shown.
T1 sequence: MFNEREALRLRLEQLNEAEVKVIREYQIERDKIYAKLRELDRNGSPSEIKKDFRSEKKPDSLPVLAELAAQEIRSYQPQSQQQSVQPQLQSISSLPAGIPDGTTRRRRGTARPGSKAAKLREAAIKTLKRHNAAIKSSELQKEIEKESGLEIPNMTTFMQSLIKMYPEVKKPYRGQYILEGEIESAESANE
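Note: rank score from −0.5 (least bound) to 0.5 (best bound).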

Sequence	binding signal [E-score]
CCTCTCGC	-0.252
CTCATAAA	0.104
CGAAGCGC	-0.157
ATCTTCAG	0.0268
GAGACCTA	-0.112
ACCCGAAC	-0.125
AGCTCTAG	-0.0656
ACTAAACG	0.131
GCGTCCAC	-0.296
GTTTGCTA	0.219
TCCCCTAA	-0.203
CAAATGAG	-0.123
ATCTGGAC	0.0182
ATATGTCA	0.176
AGGCCTGA	-0.23
AATTAGTA	0.416
AACAAGTA	0.284
ATTGCAGC	-0.119
CTGCACCC	-0.345
AAGGCCGT	-0.26
TAAGGCTA	-0.0654
AACAACCA	0.0337
ATCGTCTC	-0.0382
AGAGAAAT	0.223
AACAGCAG	0.00609

Sequence	binding signal [E-score]
CACCCACA	-0.125
AGGGGAAT	-0.365
ACACGGAC	-0.115
TCCCCCCA	-0.263
ATGCGACC	-0.31
GAGTCGAC	-0.151
CCGATCCG	-0.19
ACTGCTAT	0.19
ACTGCCGC	-0.152
CGACTGCG	-0.277
ATCGAGCG	0.0731
GGTACACC	-0.0688
AATGGTGG	-0.159
CGAGGGTC	-0.153
ACGTGACA	-0.124
GACTGGCC	-0.0568
CGCCAACC	-0.149
CACAGGTA	0.0263
ACCTAGCT	0.101
ATCAGCTG	0.0593
CAGTTCGA	0.0767
AACAGTGA	0.12
ACAAGGTA	0.166
TATGTGAA	0.19
AATGGCAC	-0.0215

Sequence	binding signal [E-score]
CCTGAAAG	-0.179
CGGACAAG	-0.161
AATCCAAG	0.135
AGGGAGGC	-0.403
CCTTTGAC	-0.168
GCTCGTCC	-0.345
GTATTGGA	0.0777
GATATATA	0.365
GGCTTCTA	0.197
CTGTTTCC	-0.0425
ACTAATCG	0.0113
TGACCCAA	-0.267
CGGCAAGC	-0.233
ACGCGGTA	-0.0332
CCCTGGAC	-0.273
CGATAAAG	0.0758
CCGGTAAA	0.107
AGCGCGTA	0.0593
CCGGGAGA	-0.252
GGTCCGCA	-0.0402
CGGCCTAG	-0.123
CGAGTCAA	-0.0796
AATACGCT	-0.0694
CAAGCAAA	-0.0528
CGATCAGC	-0.222

Sequence	binding signal [E-score]
CTATCGTC	0.179
CGAGTATC	0.00408
GGCCTGAC	-0.257
TGCTTTAA	-0.000842
ACGCAACG	0.161
ATTATATA	0.468
GACCAATA	-0.0708
AATCGCCG	0.00645
CTATACAA	0.296
ACACGCTG	0.0269
AACTGCTC	-0.0931
ACTCCTAC	0.0513
CTTGCCCC	-0.283
GAGGCACC	-0.179
ACGGAATA	0.136
CCGCGATC	-0.211
CCGACACC	-0.215
GAAAGCCA	-0.283
ACAATCAG	-0.0411
CGGGTACC	-0.166
CAGGGCTA	0.015
TAAGCCGA	-0.0712
CTAGTCAC	0.0889
ATCAAGTC	-0.0978
ACCTTCCG	-0.0903

Sequence	binding signal [E-score]
CCACGTAG	-0.0737
CGATGCCG	-0.0967
CCAATACG	-0.00833
ATCTACGA	0.275
CGTTATTC	0.0632
AACTCGCC	-0.0433
TATAGTGA	0.224
AGATCCTC	-0.00805
CTCGACCC	-0.355
CGTTCAGC	-0.336
TCGATGAA	0.0147
CGCCAACG	-0.298
ACGGATGA	-0.0612
ACCGTAAC	0.0734
TTGTTAAA	0.157
AACGCTGA	0.0852
ATGTTCAG	0.135
AATATGGA	0.165
AATAGTTA	0.372
AAAACAAC	0.0571
AAGGATAA	0.0145
CCCGTGAA	-0.313
CAGTTCGG	-0.128
ATCTAGTA	0.408
ACTCCACA	-0.0173

Sequence	binding signal [E-score]
CGTTGCCA	-0.0522
ATGCTACC	0.138
GCCGAGTA	-0.172
ACAGAACT	0.276
ACTCTATG	0.00068
AGAGGATC	-0.156
AAGTCCGT	0.00287
AAGGTTCG	0.0496
CTTCCCCA	-0.119
CAAAAGAG	-0.188
CGAGGCCA	-0.199
GATGTTAA	0.0521
GGCGGGGA	-0.459
TAATCCTA	0.171
GAAACAAA	0.0675
CGTATTAC	0.285
GTGCGGTA	-0.0045
AAGTACAT	0.225
CTGGCAAG	-0.136
ACGTAAAA	0.112
CGATCTTA	-0.0625
AACGGCAC	-0.0326
AGATCATC	-0.0566
CTAATCGA	0.122
AACTACCC	0.292

Sequence	binding signal [E-score]
AGAGTTTA	0.263
AAGCACCC	-0.232
GATCCGAA	-0.0152
CGCTCGAA	-0.139
AGCCGCTC	-0.25
TCAATACA	0.146
CTACGTCA	-0.138
TCCCGACA	-0.132
ATGAACGA	0.0418
AAACCCCT	-0.338
AACCGGCC	-0.261
ACGTTTAG	0.18
ACTAGGGA	-0.0513
GAGCGTAA	0.0531
CCATCTAC	0.196
TCCGAGGA	0.0203
ATAAACGA	0.14
CTGAGCCC	-0.268
CTCAGTGC	-0.107
AGTCCGTC	-0.0948
ATCAGGAT	-0.042
ATGAACTC	-0.0903
ATGCCACA	0.0127
AAGGTTAT	0.00534
GGGCTTCA	-0.226

Sequence	binding signal [E-score]
CGACGGCA	-0.139
AACGGTCC	-0.24
AGGAACAG	-0.0674
GACCTCTA	-0.146
TACGTAGA	0.288
GGTAGAAA	0.472
TTTTAAAA	0.0987
AAACATAG	0.247
AGGAATAT	0.191
CAGCACCA	-0.21
ATTCGCGG	-0.0779
TAACCTAA	0.0383
ACGTTTCG	0.00327
CACATTCA	0.0529
ATATCGCA	0.173
ATTCGTGC	0.12
GATACAAA	0.318
GGTCTTGA	-0.171
ACGCTATA	0.173
ACTTTGCC	-0.0651
AAGGATAT	0.151
CTATCTGC	-0.0701
CCCTATAC	0.0647
GACAAATA	0.179
AATCTCTA	0.152

Sequence	binding signal [E-score]
CACCGCTA	-0.117
CGAAAGGC	-0.183
GTCTGAGA	0.0352
AGCGAACA	-0.013
AGCCTCCG	-0.44
AGTACTTA	0.349
CAGGTTTC	-0.0637
CAAACTAG	0.329
GAAAGGTC	-0.217
CATTATTA	0.326
ACCGCGTA	-0.0835
CACATGAG	0.171
CACCTACG	0.00802
GGAACACA	-0.0735
AAGCAAAA	0.0376
CTGGGGCC	-0.376
CGGGGACC	-0.351
CATCTGTA	0.183
AAATTGGC	-1.6e-05
GAGGTTCA	-0.294
ACCAGTTA	0.163
AAGGTAGT	0.354
CGGCCTCA	-0.303
CACCAGTA	-0.00869
CGAAGCAC	-0.2

Sequence	binding signal [E-score]
ACAGTAGT	0.296
CCTCACGA	-0.14
GGAAAGTA	0.244
GACACTCA	0.0106
CCGTTATC	0.104
TAATAATA	0.395
GACTTACA	0.0795
CCCTATAG	-0.261
CCACCAAG	-0.106
ATTTCCTG	0.0706
CACGCAAC	-0.0388
AAACAAGC	-0.041
AGAGACCC	-0.232
ATGGACAT	0.0858
ATTCAATA	0.101
TCTGATAA	0.0869
AAGTGTCA	-0.152
AAATGAAC	0.0908
CCCACAGC	-0.178
ACAAAAGT	0.146
ATTGAAGA	0.204
GTCAGGTA	0.0364
CGATCATC	-0.235
ATTCCTCG	-0.00192
AGATGTGC	0.115

Sequence	binding signal [E-score]
GCATTTAC	0.207
AGTCACAC	-0.0889
ACATAAGC	0.141
AACCTGCA	-0.231
CTACTCGC	0.118
CGCTATAG	0.0935
ATTATCAA	0.308
AAGTATCG	0.113
AGTCCTAG	0.0621
CCCGGGAA	-0.199
ATCCGCTG	0.012
AGTGTCAA	0.00921
CGTCATAG	0.0138
AGTACTGA	0.172
AATCCACT	-0.0752
CCTGAGTC	-0.0724
ATCGGATA	0.127
AAGTCCGC	-0.0838
GGGAGGAC	-0.296
ACGCAGGG	-0.3
GAACGCAC	-0.177
AGCCCTGC	-0.296
GACCCGCA	-0.218
GTCCAGCA	-0.0786
CACTTCGG	-0.244

Sequence	binding signal [E-score]
ACGCTCGG	-0.265
CCCTCCTC	-0.393
CGCTCATC	-0.282
CAGAAGCA	-0.0439
ATAAGACC	0.135
AGCCCAAT	-0.0279
TCCAAGCA	-0.0779
TACCTACA	0.322
AACAGGAG	-0.0782
GTAGAAAC	0.427
CGATCCCA	-0.16
ATGCAAAG	-0.0588
CCTTTCAG	-0.224
CGGCATTA	0.172
GGGGTTCA	-0.329
ACCGAGTG	0.0735
CGCCTGGC	-0.352
TCAACCAA	-0.0239
CGTAATAC	0.301
ACAATTGT	0.222
GTCCGAAC	-0.0652
GCTTTTCA	0.0121
CACAATCC	0.0049
ACAGACGG	0.0371
AACGCGCA	-0.0365

Sequence	binding signal [E-score]
ACGGCCGG	-0.0785
ACCCTAGA	0.0093
CAGCAAAG	-0.212
CGACGGTC	-0.0734
AAAATCCT	0.14
AACAGTCG	0.0313
AGGGGAAA	-0.19
GCAGGGTA	-0.146
ACTAGGAT	0.158
GACGAGCA	-0.105
AGCAGCGC	-0.134
TACGACGA	0.189
ACAATGGG	-0.0476
GTGCCCAA	-0.184
TAAATGCA	0.255
CCTCCGGA	-0.227
CTGGACGC	-0.0676
CTGGATGC	-0.368
ATTTACTC	0.0747
AGCTCCCT	-0.149
GGCTGCAC	-0.234
CTTCCCTA	0.0486
GAGTGGCC	-0.302
TCGCATCA	-0.179
AAGAGTAA	0.146

Sequence	binding signal [E-score]
CCAAAGGC	-0.287
CAATCTTA	0.154
CCAAGATA	0.241
CTCAAAAA	-0.108
GCCTAAGC	-0.277
ACGGACGG	-0.243
CCCGGAAG	-0.354
AACTGGCA	-0.0633
CGTTCCGA	-0.139
AAGGCGGC	-0.303
GGACGAGA	-0.317
ATAACCCC	-0.236
AGCCCAGA	-0.183
TACCCGAA	0.0596
GAGAGAAC	-0.00565
TCAAAACA	0.00942
ATTTCATC	0.136
AGGAGTCA	-0.206
AGGGGATA	-0.156
